# In the supplement of paper PMC4466236:
# Over roughly 33,000 sequences, “E-score (dimensionless, -0.5 to 0.5)” has its median near -0.058; the highest 2% begin near 0.35. The list shows a part of the results.
# System: MvaT
# Assay: PBM 8-mer E-score (mean of HK and ME arrays) (E-score (dimensionless, -0.5 to 0.5)); higher = stronger relative binding preference; most listed sequences are background and not binding sites
# Protocol: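 Protein binding microarray: GST-tagged full-length MvaT (P. aeruginosa PAO1) bound to two universal double-stranded 60-mer arrays (ME and HK), each with a constant 25-mer primer and a variable 35-mer region covering all 8-mers. The 8-mer E-score (rank-based, range -0.5 to 0.5, >0.45 = specific binding) is the mean of the two arrays.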
row,Sequence,PBM 8-mer E-score
1,CCATTGCA,-0.0586
2,ATTTGGCA,0.0336
3,GAGACTCA,-0.143
4,CCACCGCC,-0.0437
5,CTATCGAC,-0.0412
6,ACAGTACT,0.143
7,CTCCCGTC,-0.313
8,AGGGCTCA,-0.281
9,AATCGGGA,-0.0897
10,GCTCGGCC,-0.174
11,GCAAAGCA,0.0492
12,AGTCAACT,0.00552
13,CTAGTGCA,0.0373
14,CTGTACGC,-0.155
15,GCCGAAAA,0.0286
16,CCAAGCTC,-0.211
17,CACAATAA,0.351
18,CAGTATTC,0.0796
19,TGTGCCAA,-0.0753
20,GCCAAACA,0.0218
21,CCTGACAG,-0.214
22,GCCGCACC,-0.263
23,ACAAATTC,0.114
24,CAATCGGC,-0.255
25,ATGGAGGC,-0.227

row,Sequence,PBM 8-mer E-score
1,CATACAGA,0.026
2,ATGCCTGC,-0.114
3,CTACGTAA,-0.1
4,AAGTTCGA,0.254
5,AGCGACAA,-0.154
6,AAGGTTTG,-0.00622
7,CTTCTGCC,-0.259
8,GTTTGGCA,-0.0591
9,AAGCTTGT,-0.0683
10,GCCGTCAA,-0.128
11,CGAGCTTA,-0.096
12,CCTGATCC,-0.242
13,AAATACCC,0.223
14,TATGGCAA,-0.0129
15,CCTATCTC,0.0122
16,CTGGAGCA,-0.143
17,GACGGCTC,-0.143
18,CAGCTCAG,-0.149
19,TGATCGAA,-0.069
20,GTCGGCGA,-0.171
21,TATGCCGA,-0.0202
22,AATGGTGT,0.113
23,ATATTTCC,0.34
24,CCTGTCCC,-0.213
25,TAACGATA,0.222

row,Sequence,PBM 8-mer E-score
1,CGTGTCCA,-0.105
2,AGAACCTG,-0.183
3,ATGTCGTA,0.105
4,GATTAAAC,0.191
5,AGGGCGGA,-0.174
6,ACCAAGTG,0.0528
7,AGGGACTC,-0.203
8,GGTACTCA,-0.0459
9,ATAGCGAT,0.103
10,GGTCGAAA,-0.088
11,GACCCTAC,-0.272
12,AGGGCCTC,-0.159
13,CGCGGTAA,0.00285
14,AAGGCTGT,-0.205
15,CCCTTCAC,-0.357
16,GGTTCGTA,-0.165
17,CTGCCGTA,-0.119
18,GCACCATA,0.0674
19,TATCACAA,0.264
20,CTTTTGTC,0.0941
21,TCTTTACA,0.157
22,CATTTTAG,0.112
23,CGCTCCAC,-0.171
24,ACAGCCTC,-0.211
25,TAGAGCAA,-0.0916

row,Sequence,PBM 8-mer E-score
1,ATTCGAAG,0.164
2,AGCTAAAA,-0.0483
3,ATGGCATG,-0.0842
4,GTCGTATA,0.129
5,AAGGAGCT,-0.22
6,CTACATGC,-0.081
7,AATGCCAC,0.0378
8,ACTTGGAA,0.12
9,ATCTGGCA,-0.0575
10,CCAGACGA,-0.0247
11,ACGGCAAG,-0.124
12,AACAGACG,0.0208
13,AAACTTCG,0.236
14,GCAAAGAC,-0.202
15,ACAATAGT,0.294
16,AAGAATAA,0.368
17,ACATCGGC,-0.173
18,GCATTCAC,0.00456
19,CCTTGTCG,-0.167
20,ATCTCATG,-0.00311
21,GGGACATA,-0.0264
22,AGGGCTCC,-0.302
23,AGTTGGTA,0.229
24,ACTTGGCG,0.0161
25,GCGACCCC,-0.139

row,Sequence,PBM 8-mer E-score
1,CGAAAGCG,-0.224
2,AACTCAAG,-0.0533
3,ACCAGAGC,-0.224
4,AATGGAAC,0.052
5,AAGAATAG,0.12
6,CAAAAGCG,0.0233
7,GGAATTCA,0.0984
8,ACAAAACT,0.138
9,CTTGGCAA,0.00207
10,CAATGCTG,-0.0786
11,GGAGTACA,-0.00566
12,CACGGGGG,-0.347
13,TGACCTCA,-0.175
14,CGACAAAC,0.0232
15,AATTCAGA,0.251
16,CAGATCTG,-0.121
17,AATTAAGT,0.395
18,GGCACGAA,-0.255
19,CGTCGTAC,-0.182
20,ACTGGAGC,-0.113
21,CCAGCAGA,-0.138
22,CTGCAAGC,-0.29
23,CATCGGAG,-0.157
24,CTGATCAA,-0.0959
25,GTGGGTGA,0.0119

row,Sequence,PBM 8-mer E-score
1,ACTGATGA,-0.0672
2,GAAACCGA,-0.0374
3,CCTCAATC,-0.0519
4,ACATAATA,0.401
5,CCAAAAGG,-0.187
6,GTTGATCA,0.0156
7,GAATAGAC,0.00866
8,ACAGTGTG,0.0186
9,AGCGTGTA,-0.00148
10,AATCTAGG,-0.049
11,GTCACAAA,0.141
12,AATTCTCT,0.137
13,CCCCGGAG,-0.343
14,CGCTGCAA,0.0561
15,AAGGCGCT,-0.151
16,CAGTTTGA,0.132
17,GCCGCTCC,-0.271
18,ACACCTGT,-0.233
19,CGCTGACG,-0.221
20,TATGTGCA,0.17
21,TATAAACA,0.373
22,GCATCAGA,-0.134
23,GTACCCTA,-0.101
24,AACGTCTT,-0.014
25,GTCTGCCA,-0.154

row,Sequence,PBM 8-mer E-score
1,ACGAAACA,0.112
2,ACTGGCCA,-0.171
3,GTCTCCGA,-0.0491
4,AAATTAAA,0.399
5,AATCTGCC,-0.0395
6,CAGAACTA,0.198
7,CCCAACCC,-0.264
8,ACGCCACT,-0.0949
9,TAAGCGGA,0.0899
10,CGTTAGCC,-0.129
11,AGCTACCG,-0.268
12,AGTGTACG,-0.0263
13,ATCCAATA,0.186
14,AAATAGGA,-0.0215
15,AGAGGGTA,-0.141
16,AACTGCTG,-0.0452
17,CGCAGCCG,-0.215
18,CCGTTCTC,-0.0662
19,CGCTCAAA,0.0659
20,GATAATTA,0.419
21,CACTGACG,-0.148
22,GCGGCAGA,-0.222
